In the supplement of paper PMC3334620:
The full ranking holds about 33,000 sequences; the median of “E-score (-0.5 to 0.5)” is about -0.016, and the highest 2% start at about 0.31. The list shows a part of the results.

target: Cst6 (UniProt P40535); assay: PBM E-score (8-mer binding enrichment) (E-score (-0.5 to 0.5)); higher = stronger / more preferred TF binding; most listed sequences are background and not binding sites; details: protein concentration: 200 nM; construct: GST-DNA-binding domain
Experimental: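 Universal 'all 10-mer' protein binding microarrays (Agilent AMADID 015681) probed with GST-tagged S. cerevisiae TFs (full-length or DBD) made by in vitro transcription/translation (PURExpress), about 100-200 nM. Bound TF was detected with fluorescent anti-GST. Each ungapped 8-mer (which stands for itself and its reverse complement) is scored by the PBM enrichment score (E-score), a modified Wilcoxon-Mann-Whitney statistic from -0.5 to +0.5, computed with the Universal PBM Analysis Suite. Scale: above 0.35 generally sequence-specific binding.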

Row | Sequence | PBM E-score
1 | CCAGACTC | -0.221
2 | AAGCTGAG | -0.0358
3 | CTAAGAGA | 0.0292
4 | GACACGCA | 0.134
5 | ACTAAAAG | 0.0434
6 | GCTAGATA | 0.0191
7 | GCAGAAAC | 0.159
8 | AGATCGCG | 0.122
9 | AAGTTACG | 0.241
10 | ATTGTAAC | 0.0819
11 | CCAGGACG | -0.028
12 | GCAGGTCC | -0.158
13 | CCACGAAC | 0.0303
14 | ACATGACG | 0.435
15 | GTAGATAC | 0.124
16 | CACCACTA | 0.0598
17 | CAGGACCC | -0.227
18 | CGCAGTGA | 0.0474
19 | TCAAAGGA | -0.0619
20 | CGCAATGC | 0.132
21 | ACCACAGT | 0.0309
22 | ATGTTATG | 0.295
23 | GAATCTAC | 0.0715
24 | CTTAGTTC | -0.027
25 | ACCGTTCT | -0.214

Row | Sequence | PBM E-score
26 | AAGACGGC | 0.00803
27 | GAGTGCAA | -0.0418
28 | ACATAAGC | -0.0169
29 | GTGCACCA | 0.0104
30 | ATACTCAG | 0.103
31 | CCATGATA | 0.0966
32 | AGAGACCT | -0.0958
33 | GCTAGGAC | -0.113
34 | TCCCTCAA | -0.0304
35 | ACGTGTCG | 0.181
36 | GATTCGGA | 0.169
37 | ATGGTCGC | -0.175
38 | CATTGGCC | -0.223
39 | GGATATAA | 0.236
40 | CCTACCCA | -0.131
41 | CATCTAGA | 0.019
42 | TGTTAACA | -0.153
43 | ACTTTTAG | 0.019
44 | GGCCGGGA | -0.327
45 | CAGATAGC | -0.274
46 | TACGTCTA | 0.188
47 | AGGTCGTC | -0.042
48 | AATCACAT | 0.125
49 | AAGTACTT | -0.117
50 | GCTGCGAA | 0.0455

Row | Sequence | PBM E-score
51 | CGACACAA | -0.0353
52 | ACACAGCC | 0.141
53 | GGTTCTTA | 0.00132
54 | AGATCACT | 0.181
55 | CAGTTGAG | -0.163
56 | GCCTCGGA | -0.0928
57 | ACACACAT | 0.107
58 | GACTCTCA | -0.147
59 | CCTTAGAA | 0.037
60 | GTTCACAA | 0.13
61 | CTTGATCC | -0.0116
62 | AAATGGTA | 0.0899
63 | AAAATGCC | 0.165
64 | CTAGCATA | -0.177
65 | GATAACTA | 0.0353
66 | AACCCGTA | -0.0464
67 | CTGAGCGC | -0.173
68 | AAGGAGTC | -0.206
69 | CGGAAGGA | -0.155
70 | ACTGATAC | -0.0371
71 | ATTGACAC | 0.0336
72 | AAATCTGC | -0.0415
73 | GCTCGCCC | -0.255
74 | ATGGTTCA | -0.00342
75 | GCGGTCCA | -0.321

Row | Sequence | PBM E-score
76 | GAGGTCAA | -0.0815
77 | GAAGAGGC | 0.0384
78 | ATCCAACC | -0.113
79 | AGCGTAGG | -0.205
80 | CGTCCGGC | -0.122
81 | AAACCGGT | -0.167
82 | CCGGTTCA | -0.229
83 | GATGCCGA | 0.118
84 | GGCGTGAC | 0.263
85 | GCTGGAGA | -0.254
86 | AACATCCT | -0.0218
87 | AGACGGCT | -0.0242
88 | GCCGGGTA | -0.312
89 | ACACTTGC | -0.0547
90 | GTATAACA | 0.144
91 | GCTGAGAC | -0.181
92 | CGAGCTAA | -0.128
93 | GCTAATGA | 0.0501
94 | AGGCCTAT | -0.0919
95 | GATGCAAA | -0.00557
96 | AAGCATAG | -0.0988
97 | ACAGTTGG | 0.0396
98 | GATGGAAC | -0.0946
99 | GCCTAGTA | -0.0619
100 | AGAGTTAC | 0.0804

Row | Sequence | PBM E-score
101 | CATTATAA | 0.124
102 | AATGTTTG | 0.0959
103 | AATGCTCT | 0.0147
104 | CCCTCCTA | -0.252
105 | GCAAATAC | 0.111
106 | GACTGAGC | -0.149
107 | CATCATAC | 0.374
108 | ATTATCGA | 0.042
109 | GGGGTCGA | -0.211
110 | ATATCGAG | 0.00721
111 | ACGAAGCA | 0.105
112 | CCGCGGTA | -0.0481
113 | CAACGAGA | 0.136
114 | GCTCTTAC | 0.139
115 | TGCTCAAA | -0.0553
116 | GAGGGTCA | -0.235
117 | GTACATGA | 0.158
118 | CTGGCATA | -0.0325
119 | TCTAGTCA | -0.0147
120 | CACCACGC | -0.0882
121 | CAACGAGG | 0.00993
122 | CATAAGCC | -0.0207
123 | CGTATGCA | 0.221
124 | CAGCCAGA | -0.32
125 | GAAAGCTC | -0.157

Row | Sequence | PBM E-score
126 | AAAAGAGT | -0.00431
127 | AGAGAGGC | -0.251
128 | CAATATTG | 0.306
129 | AGATTCAA | 0.127
130 | AATTGTCA | 0.269
131 | CGGGGCCC | -0.0951
132 | TAGACAGA | 0.13
133 | ACCGATTG | 0.0893
134 | AACATGCT | 0.0186
135 | GTAACGAA | 0.171
136 | CCCATACG | -0.0945
137 | ACTTCAGC | -0.153
138 | GGATTACC | -0.121
139 | TGTGACAA | 0.117
140 | GATAGGAA | -0.0555
141 | TTCCAGAA | 0.199
142 | CTTACCCA | -0.0433
143 | CTGCAATA | 0.107
144 | GAGATACA | 0.197
145 | AGGATCAG | -0.266
146 | AGAACGCT | -0.151
147 | CCAATACG | 0.0622
148 | GACACGGA | 0.0706
149 | AAGAAATT | 0.262
150 | GACCTACA | -0.0676

Row | Sequence | PBM E-score
151 | AAGCGTGG | -0.165
152 | CAGCGGGG | -0.0319
153 | GATACAAA | 0.157
154 | AAAGACGT | 0.271
155 | CATGGTAG | -0.0732
156 | AAAACGGA | 0.171
157 | CGTATCAC | 0.142
158 | CATTGTAC | 0.033
159 | ACAGCAAC | 0.0988
160 | GTTTCCTA | 0.201
161 | ATCCTAAG | -0.131
162 | CCGCCAGG | -0.246
163 | CAGTGAGC | -0.00176
164 | TCCTCCCA | -0.249
165 | AGGAAGGG | -0.262
166 | CTCTAGCA | -0.0453
167 | AATCTTGG | -0.029
168 | CGGCCGTA | 0.175
169 | ACTGTAGC | -0.197
170 | AAAAAAAA | 0.317
171 | AGGTACAC | -0.334
172 | TAGACCCA | 0.0486
